Test results taken from PubChem BioAssay (NCATS).
Several values for one entry are separate records, joined by “and”; a condition that tells them apart may be missing. Identical values can stand only once. The inconclusive results got no clear call from the source; some entries with a clear call stand among them for comparison. Potencies of inconclusive entries are doubtful fits and often do not repeat. Activity calls are given as the source filed them. The call rests on the fitted dose curve; in most records, active means well fitted cell-killing curve with a large enough effect; inconclusive means small, poorly fitted or top-dose-only effect, or effect the other way; inactive means no such curve, though single readings can be large or run the other way.

Columns and labels:
[1] = Viability qHTS for spleen associated tyrosine kinase inhibitor (SYKi) naive MV4-11 cells (AID 1963823); conditions: MV4-11 AML viability, CellTiter-Glo luminescence, 72 h; series mostly up to 45 µM; further: nearly all actives have a fitted effect of over 40% in size
In short: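 Viability of MV4-11 AML cells lacking prior SYK inhibitor exposure is scored by CellTiter-Glo luminescence following 72 hr compound incubation at 37 C, 5% CO2, seeded at 500 cells per well.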

[2] = Viability qHTS for spleen associated tyrosine kinase inhibitor (SYKi) drug resistant MV4-11 cells (AID 1963824); further: nearly all actives have a fitted effect of over 35% in size
In short: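 CellTiter-Glo luminescence, read 10 min after reagent addition, reports viability after a 72 hr compound exposure. Cells are an MV4-11 line made resistant to SYK inhibition, seeded at 500 per well onto compound-containing plates.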
Potency means the concentration at half of the fitted maximal effect; tags describe the fitted curve by direction and shape.

Structure (SMILES) | Potency [1] | Potency [2]
CCOC(=O)CCN(C(=O)c1ccc2c(c1)nc(CNc1ccc(C(=N)N)cc1)n2C)c1ccccn1 | inconclusive: 16.4 µM [cytotoxic, single point] | inactive
CN(C)c1cc2c(Nc3ccc4c(cnn4Cc4ccccc4)c3)ncnc2cn1 | active: 8.2 µM and inconclusive: 6.51 µM [cytotoxic, partial curve] | inconclusive: 5.8 µM [cytotoxic, partial curve]
C[C@H]1CC[C@@]2(OC1)O[C@H]1CC3[C@@H]4CC[C@@H]5C[C@@H](O[C@@H]6O[C@H](CO)[C@@H](O[C@@H]7O[C@@H](C)[C@H](O)[C@@H](O)[C@H]7O)[C@H](O)[C@H]6O[C@@H]6O[C@H](CO)[C@@H](O)[C@H](O)[C@H]6O)CC[C@]5(C)C4CC[C@]3(C)[C@H]1[C@@H]2C (stereo not given in full) | inconclusive: 6.93 µM [cytotoxic, single point] | inconclusive: 4.91 µM [cytotoxic, single point]
COCC1OC(OC(C)(C)C2CCC3(C)C=C(C4CCC5C4(C)CC(O)C4OC(C(C)(C)O)CCC45C)CCC3O2)C(NC(C)=O)C(O)C1O (stereo not given) | inconclusive: 2.73 µM [cytotoxic, partial curve, poor fit] | inconclusive: 6.11 µM [cytotoxic, partial curve]
CCCN(CCc1ccsc1)C1CCc2c(O)cccc2C1 (stereo not given) | inconclusive: 14.6 µM [cytotoxic, partial curve] | inconclusive: 14.6 µM [cytotoxic, partial curve]
CC(=O)Oc1cc2c(s1)CCN([C@H](C(=O)C1CC1)c1ccccc1F)C2 | inconclusive: 18.4 µM [cytotoxic, partial curve] | inconclusive: 13 µM [cytotoxic, partial curve]
CC1=C(CCC(C)CC(=O)O)[C@@]2(C)CCCC(C)(C)C2CC1=O (stereo not given in full) | inconclusive: 2.55 µM [cytotoxic, single point] | inconclusive: 11.4 µM [cytotoxic, single point]
CC(C)(O)C1CCC2(C)C3C(O)C4C(C13)C42CO (stereo not given) | inactive | inactive
COC(=O)[C@]1(Cc2ccc(O)c(CC=C(C)C)c2)OC(=O)C(O)=C1c1ccc(O)cc1 | inconclusive: 10 µM [cytotoxic, single point] | active: 8.93 µM
C[C@@H](O)[C@H]1C(=O)N2C(C(=O)O)=C(S[C@@H]3CN[C@H](C(=O)N(C)C)C3)[C@H](C)[C@H]12 | inactive | inconclusive: 0.0067 µM [rising, full curve, poor fit]
C=C1CC[C@H]2[C@@](C)(CCC(OC3OC(CO)C(O)C(O)C3O)[C@@]2(C)CO)C1C(=O)CC1=CCOC1=O (stereo not given in full) | inactive | inactive
CCOC(=O)[C@@](C)(N)Cc1ccc(O)c(O)c1 | inconclusive: 23.7 µM [cytotoxic, single point] | inactive
Cc1ccc(S(=O)(=O)NC(=O)NC2CCCC2)cc1 | inconclusive: 0.0119 µM [rising, full curve, poor fit] | inconclusive: 0.0596 µM [rising, full curve]
CCCN1C[C@H](CSC)C[C@@H]2c3cccc4[nH]cc(c34)C[C@H]21 | inconclusive: 4.22 µM [cytotoxic, partial curve, poor fit] and inconclusive: 5.8 µM [cytotoxic, partial curve] | inconclusive: 7.5 µM [cytotoxic, partial curve, poor fit] and inconclusive: 9.2 µM [cytotoxic, partial curve]
C[C@@H]1C(=O)O[C@H](C)[C@H]1C[C@@H](O)[C@](C)(O)[C@H]1CC[C@@]2(O)C3=CC(=O)[C@@H]4C[C@@H](O)[C@@H](O)C[C@]4(C)C3CC[C@]12C (stereo not given in full) | inactive | inactive
